Test results taken from publication PMC4336329 (PLoS ONE, 2015).
About 14,000 (4.5%) of roughly 310,000 compounds showed an effect of 50% or more. The effect is printed as a negative number. The list shows a part of the results.

The compounds below were run against human ether-à-go-go-related gene (hERG) potassium channel (human, UniProt Q12809) (assay: primary screen, population patch clamp on CHO cells stably expressing hERG).
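Note: peak tail current of the secondary pulse compared with the same well before compound.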

Chain of human ether-à-go-go-related gene (hERG) potassium channel (Q12809 whole entry, looked up): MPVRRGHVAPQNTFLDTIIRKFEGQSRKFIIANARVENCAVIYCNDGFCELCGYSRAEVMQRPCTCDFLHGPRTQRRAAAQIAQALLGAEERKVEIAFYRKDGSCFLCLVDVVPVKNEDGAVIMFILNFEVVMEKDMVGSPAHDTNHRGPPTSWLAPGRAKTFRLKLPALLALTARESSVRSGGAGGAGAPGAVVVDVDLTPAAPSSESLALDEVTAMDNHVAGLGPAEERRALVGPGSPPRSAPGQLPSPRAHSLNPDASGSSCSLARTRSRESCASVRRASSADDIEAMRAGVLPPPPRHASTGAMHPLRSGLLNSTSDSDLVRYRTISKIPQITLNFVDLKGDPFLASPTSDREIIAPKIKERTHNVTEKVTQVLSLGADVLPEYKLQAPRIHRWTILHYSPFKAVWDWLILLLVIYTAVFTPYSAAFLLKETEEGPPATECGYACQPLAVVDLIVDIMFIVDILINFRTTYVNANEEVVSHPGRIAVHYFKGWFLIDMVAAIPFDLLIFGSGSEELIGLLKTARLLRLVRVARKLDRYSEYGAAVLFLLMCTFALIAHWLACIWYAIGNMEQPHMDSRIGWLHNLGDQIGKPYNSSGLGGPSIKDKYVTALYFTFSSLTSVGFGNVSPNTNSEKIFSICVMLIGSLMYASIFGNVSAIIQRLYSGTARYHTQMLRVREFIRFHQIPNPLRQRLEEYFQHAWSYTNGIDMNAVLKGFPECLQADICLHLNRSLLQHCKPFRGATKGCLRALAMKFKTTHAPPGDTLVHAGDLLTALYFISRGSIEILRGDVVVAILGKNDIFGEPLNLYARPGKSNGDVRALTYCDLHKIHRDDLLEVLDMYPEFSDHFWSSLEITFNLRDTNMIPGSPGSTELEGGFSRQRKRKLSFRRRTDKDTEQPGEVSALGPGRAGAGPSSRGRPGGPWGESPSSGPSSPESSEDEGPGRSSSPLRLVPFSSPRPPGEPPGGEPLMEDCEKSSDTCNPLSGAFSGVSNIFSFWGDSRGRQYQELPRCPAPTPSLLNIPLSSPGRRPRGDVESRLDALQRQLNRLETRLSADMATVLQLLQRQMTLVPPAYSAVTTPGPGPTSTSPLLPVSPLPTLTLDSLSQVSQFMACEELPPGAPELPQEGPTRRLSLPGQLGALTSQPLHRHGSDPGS

| SMILES | hERG current change (%, negative = inhibition) at 10uM [%] |
| --- | --- |
| CCCc1cc(=O)n2[nH]c(C(F)(F)F)nc2n1 | 25.7 |
| Cc1ccc(NC(=S)c2ccc(N(C)C)cc2)cc1 | 20.1 |
| CCCC(=O)Nc1sc2c(c1C#N)CCCC2 | 4.29 |
| Cc1cc(C)cc(N(CC(=O)NCC2CCCO2)C(=O)CCC(=O)Nc2cc(C)on2)c1 (centres unmarked) | 10.9 |
| CCN(CC)S(=O)(=O)N1CCC(C(=O)NCc2ccco2)CC1 | 2.3 |
| CCCC(O)(c1ccccc1)C(CN1CCOCC1)c1ccccc1.Cl (centres unmarked) | 2.54 |
| CC(C)(CNC(=O)c1cccc(F)c1)CNC(=O)c1cccc(F)c1 | -13.1 |
| CC(C(=O)NC1CCCCC1)N1C(=O)C2C3C=CC(C3)C2C1=O (centres unmarked) | 14.2 |
| COc1cccc(C(=O)Nc2cccc(-c3nnc(-c4ccco4)o3)c2)c1 | -51.4 |
| COc1cc(O)c2c(=O)cc(-c3ccccc3)oc2c1 | 0.195 |
| COC(C(=O)Nc1c(F)cccc1F)c1ccccc1 (centres unmarked) | 12.1 |
| Cc1ccccc1Cn1c(-c2ccc(=O)[nH]c2)nc2ccccc21 | -11.4 |
| O=C(N1CCCCC1)N1CCN(S(=O)(=O)c2cccc([N+](=O)[O-])c2)CC1 | -15.8 |
| Cc1cccc(NC(=S)N2CCCCC2c2cccnc2)c1C (centres unmarked) | -7.57 |
| CCn1ccnc1CN(C)C(=O)C1CCC(=O)N(CCc2cccc(F)c2)C1 (centres unmarked) | -50.7 |
| C#CCOCCOCCOCCNc1nc(N2CCN(C(=O)C([C@@H](C)CC)n3cc(C(N)COC(=O)C(F)(F)F)nn3)CC2)nc(N2CCN(C(=O)[C@H](CCC(=O)O)n3cc(C(N)CC(C)C)nn3)CC2)n1.Cl (some centres unmarked) | 13.5 |
| CC(C)(C)c1cc(C(c2cccnc2)N2CCN(CCO)CC2)cc(C(C)(C)C)c1O (centres unmarked) | -53.8 |
| c1cc(N2CCCC2)ccc1C(c1nnnn1C1CCCCC1)N1CCOCC1 (centres unmarked) | 16.7 |
| Cc1c(C(c2ccc(F)cc2)c2c(C)n(C)n(-c3ccccc3)c2=O)c(=O)n(-c2ccccc2)n1C | 9.79 |
| O=C(COc1ccc(Br)cc1)NCCCNC(=O)c1cnccn1 | -10.2 |
| Cc1cccc(C)c1NC(=O)CN(c1ccccn1)S(=O)(=O)c1ccc(F)cc1 | 19.1 |
| O=[N+]([O-])c1cccc(-c2nnc(-c3ccccc3F)o2)c1 | 1.55 |
| Cc1ccc(C2C(C#N)=C(N)N(N(C)C)C3=C2C(=O)CCC3)cc1 (centres unmarked) | -15.9 |
